Among all 45,000 compounds or so, about 65 (0.1%) were called active. Calls follow the shape of the dose curve; as a rule, active = well fitted activation curve with a large enough effect; inconclusive = small, poorly fitted or top-dose-only effect; inactive = no such curve, though single readings can be large or run the other way. The list shows a part of the results.
The compounds below were run against Galactocerebrosidase (Homo sapiens) (UniProt P54803) (assay: A Novel Cell-Based Assay to Identify Small Molecules for B -Galactocerebrosidase). Conditions: 145M-Twi-hGALC-G270D cells (Twitcher mouse brain line with human GALC G270D), HMU-beta-Gal fluorescence, 48 h; series mostly up to 57.5 µM; activation: at the top concentration.
Outline: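 Fluorogenic HMU-b-Gal hydrolysis (0.1 mM final, pH 5.2 citrate-phosphate with 1 mg/mL sodium taurocholate; carbonate stop buffer) measures mutant GALC activity after compound treatment of live 145M-Twi Twitcher brain cells stably carrying human GALC-G270D, with wild-type GALC line alongside; activation sought.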
Also: 0% is about no effect; nearly all actives have a fitted effect of over 65% in size.

UniProt P54803, sequence (P54803 whole entry, looked up): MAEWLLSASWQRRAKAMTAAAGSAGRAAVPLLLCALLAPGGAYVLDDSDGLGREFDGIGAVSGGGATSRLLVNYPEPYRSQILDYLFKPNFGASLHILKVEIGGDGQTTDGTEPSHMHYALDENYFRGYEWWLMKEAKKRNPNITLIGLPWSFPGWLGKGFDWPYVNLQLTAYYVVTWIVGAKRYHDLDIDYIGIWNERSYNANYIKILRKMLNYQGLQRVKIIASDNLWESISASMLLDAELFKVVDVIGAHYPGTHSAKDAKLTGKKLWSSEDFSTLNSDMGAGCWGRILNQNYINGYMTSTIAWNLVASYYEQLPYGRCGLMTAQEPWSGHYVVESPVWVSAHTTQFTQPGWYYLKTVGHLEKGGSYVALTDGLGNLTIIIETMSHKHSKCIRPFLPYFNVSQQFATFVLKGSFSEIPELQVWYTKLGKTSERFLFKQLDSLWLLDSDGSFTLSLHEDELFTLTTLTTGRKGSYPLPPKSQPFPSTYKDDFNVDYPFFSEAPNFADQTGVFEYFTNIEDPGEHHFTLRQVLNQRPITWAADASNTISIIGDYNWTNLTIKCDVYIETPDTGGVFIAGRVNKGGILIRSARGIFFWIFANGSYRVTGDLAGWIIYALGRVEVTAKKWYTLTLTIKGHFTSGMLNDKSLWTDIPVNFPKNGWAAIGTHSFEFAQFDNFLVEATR

activation, inactive:
Cc1ccc(Cl)cc1-n1c(SCC(=O)NCc2ccccc2)nc2n[nH]c(C)c2c1=N -15.9%
CSc1ccc(CCNC(=O)CN2C(=O)COc3ccc(S(=O)(=O)N4CCCCCC4)cc32)cc1 -4.95%
CCOc1ccc(CNC(=O)c2cc3cc(S(=O)(=O)N4CCCCC4)ccc3n2C)cc1 -14.6%
Oc1ccc(NCc2ccccc2OCc2ccccc2)cc1 -14.2%
CC1CCN(S(=O)(=O)c2ccc3c(c2)N(CC(=O)Nc2ccc(F)c(Cl)c2)C(=O)CO3)CC1 -18.2%
COc1ccc(NC(=O)c2oc3ccccc3c2NC(=O)Cc2ccc(F)cc2)c(OC)c1 -11.4%
COc1ccc(Cl)cc1-n1c(CCC(=O)O)ccc1-c1ccc(C)cc1 -19.2%
O=C(CC1N=C2c3ccccc3N=C(SCc3ccccc3Cl)N2C1=O)NC1CCCCC1 (stereo unspecified) -21.2%
COc1ccc(-c2nc3ccc(C(=O)NCc4ccc(C)cc4)cc3nc2-c2ccc(OC)cc2)cc1 -13.6%
Cc1cc(=O)[nH]c(SCC(=O)N2CCN(c3ccccc3)CC2)n1 -9.51%
CCN1CCN(c2cc(C)c3cc(NC(=O)c4cc(OC)cc(OC)c4)ccc3n2)CC1 -15.2%
Cc1ccc(OCCn2c(COc3ccc(Cl)cc3)nc3ccccc32)cc1 -7.06%
COc1ccc(Br)cc1CNC(=O)CCSCc1ccc(Cl)cc1 -5.82%
CCC(=O)N1CCc2cc(CNS(=O)(=O)c3cc(Cl)ccc3OC)ccc21 -12.4%
Cc1nn(CC(=O)N2CCN(c3ccccc3)CC2)c(=O)c2cc3sccc3n12 -20%
CC1CCN(C(=O)c2ccc(NC(=O)c3nsc4ccccc34)cc2)CC1 -26%
CCOC(=O)c1sc(NC(=O)c2nc3nc(C)cc(C(F)F)n3n2)c(C(=O)OC)c1C -10.8%
COc1cccc(NC(=O)N2CCC(CN3CCOCC3)CC2)c1 -12.2%
CCC(C)NC(=O)Cn1cnc2sc(C)c(S(=O)(=O)N3CCN(c4ccccc4OC)CC3)c2c1=O (stereo unspecified) -11.7%
Cc1c(C(=O)Nc2cccc(Cl)c2)oc2ccc(S(=O)(=O)N3CCOCC3)cc12 -11.5%
COc1ccc(N2C(=O)CCSC23C(=O)N(Cc2ccc(F)cc2)c2ccccc23)cc1Cl (stereo unspecified) -7.49%
Cc1cccc(N2CCN(S(=O)(=O)c3c(C)nc4scc(C)n4c3=O)CC2C)c1 (stereo unspecified) -11.3%
Cc1ccc(CCNC(=O)CN2N=C(c3ccc(C)cc3)CCC2=O)cc1 -12.5%
CCc1ccccc1NC(=O)Cn1c(=O)ccc2cc(S(=O)(=O)N3CCC(C)CC3)ccc21 -21.7%
Cn1nc(C(=O)Nc2ccccc2C#N)c2c1-c1ccccc1SC2 -7.43%
Cc1ccc(NC(=O)CN2C(=O)C(C)(C)c3cc(S(=O)(=O)N4CCCCC4)ccc32)c(Br)c1 -28.3%
CCOc1cccc(C2c3c(oc4cc(C)c(C)cc4c3=O)C(=O)N2c2nc(C)c(C)s2)c1 (stereo unspecified) -2.59%
O=C(NC1CC(=O)N(c2ccc(Cl)cc2)C1)C1CCCCC1 (stereo unspecified) -12.5%
CCOc1ccc(Nc2oc(/C=C/c3cc(OC)c(OC)c(OC)c3)nc2C#N)cc1 -9.58%
COc1cc(C(=O)NCCSc2c(C)[nH]c3ccccc23)cc(OC)c1OC -9.8%
CCOc1ccc(NC(=O)CSc2nc3ccccc3c(=O)n2CCC(=O)NC2CCCCC2)cc1 -4.77%
COc1ccc(NC(=O)CN(C)S(=O)(=O)c2cnc[nH]2)cc1 -15.4%
CCc1ccccc1NC(=O)[C@H](Cc1ccccc1)N1Cc2ccccc2C1=O -11.9%
COC(=O)c1c(NC(=O)/C(C#N)=C/c2ccc(OC)cc2)sc2c1C(C(=O)OC)CC2 (stereo unspecified) -15.5%
COc1ccc(CCNC(=O)CSc2cn(CCNC(=O)c3ccc(OC)c(OC)c3)c3ccccc23)cc1OC -4.46%
O=C(O)CSc1nc2ccccc2nc1N1CCCCC1 -4.01%
COc1ccc(-c2noc(C3CC(=O)N(c4ccc5c(c4)OCCO5)C3)n2)c(OC)c1 (stereo unspecified) -3.09%
COc1cccc(NS(=O)(=O)c2cc(-c3cnc(C4CC4)o3)ccc2C)c1 -5.39%
CC(=O)c1cc2c(cc1N/C(=N/S(=O)(=O)c1ccc(C)cc1)c1ccc(Cl)cc1)OCO2 -11.7%
O=C(CCn1c(=O)c2cccn2c2cccnc21)NCc1cccc(Br)c1 -2.64%
Cc1ccc2c(=O)cc(C(=O)Nc3ccc(S(=O)(=O)N4CCCC(C)C4)cc3)oc2c1C (stereo unspecified) -15.7%
CC(C)Cn1c(SCc2cccc(F)c2)nc2ccsc2c1=O -44.5%
Cc1cccc(C)c1NC(=O)CSc1nccn1C -6.2%
CCOc1ccc(CNC(=O)c2cccc(Nc3nc4ccccc4n4nnnc34)c2)cc1OC -9.41%
Cc1ccc(C)c(CN2C(=O)c3ccccc3S(=O)(=O)c3ccc(C(=O)N4CCN(Cc5ccccc5)CC4)cc32)c1 -17.4%
CCOc1ccc(NC(=O)c2oc3ccccc3c2NC(=O)C(C)Oc2ccccc2)cc1 (stereo unspecified) 1.32%
Cc1ccc(C)c(C(=O)N2CCC(c3nc4c(nnn4Cc4ccccc4)c(=O)[nH]3)CC2)c1 -13.1%
COc1ccccc1C1=Nn2c(nc3sc(C(=O)Nc4ccccc4Cl)c(C)c3c2=O)SC1 5.09%
CCOCCCn1c(SCC(=O)Nc2ccccc2OC)nc2c(oc3ccccc32)c1=O -14%
CCOc1ccccc1N1CC(c2nc3ccccc3n2CCCCOc2ccccc2)CC1=O (stereo unspecified) -5.04%
S=c1[nH]c2ccccc2s1 -14.8% [at 114 µM]
CC(NC(=O)c1c(O)nc2ccccn2c1=O)c1ccccc1 (stereo unspecified) 4.37%
COc1ccc(-c2cn3c(n2)sc2cc(C(=O)NCc4ccccc4)ccc23)cc1 -10.8%
Cc1ccc(CNc2c(C)c(C)nc3nncn23)cc1 -1.18%
COc1ccc(OC)c(C2CC(=O)Nc3ccc4ccccc4c32)c1 (stereo unspecified) -25.4%
CCN(C(=O)CCS(=O)(=O)c1cc(Br)cc2c1N(C(=O)C1CC1)CC2)c1cccc(C)c1 -17.9%
COc1ccc(Cc2nc3ccc(C(=O)NCCc4ccc(Cl)cc4)cc3o2)cc1 -17.3%
O=C(NCC(c1ccc2c(c1)OCO2)N1CCOCC1)c1ccc(F)cc1 (stereo unspecified) -13.2%
CCCC(=O)N(c1ccc2oc(-c3ccccc3)c(C(=O)OCC)c2c1)S(=O)(=O)c1ccc(C)cc1 -22.8%
COCCCNC(=O)Cn1c(=O)n(CCCC(=O)NCc2ccc(C)cc2)c(=O)c2ccccc21 -10.2%
CCCCN1CC(c2nc3ccccc3n2CCCCOc2c(C)cccc2C)CC1=O (stereo unspecified) -57.6%

Source: PubChem BioAssay AID1159614 (National Center for Advancing Translational Sciences (NCATS), 2016)
